From PubChem BioAssay AID485313 (National Center for Advancing Translational Sciences (NCATS), 2010)
Where “and” joins values, the source holds several entries; their conditions need not be identical. Equal entries are not always repeated. Out of some 320,000 compounds screened, about 7,600 (2.4%) were called active. This list was built around the results that the source calls inconclusive (neither active nor inactive); the mix of calls is not that of the screen. The call rests on the fitted dose curve; in most records, active means well fitted activation curve with a large enough effect; inconclusive means small, poorly fitted or top-dose-only effect; inactive means no such curve, though single readings can be large or run the other way. No potency is given beside an inconclusive call; the fits are too rough.

experiment: qHTS Assay for NPC1 Promoter Activators; settings: Huh7 NPC1 promoter luciferase reporter, 24 h; series mostly up to 9.22 µM; activation: at the top concentration; further: nearly all actives have a fitted effect of over 60% in size; on activation: % of control where 0% means no effect
Method in brief: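 Luminescence read-out of NPC1 promoter-driven luciferase in stably transfected Huh7 cells; compounds delivered in DMSO and left 24 h at 37C, 5% CO2, qHTS titration format.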
Potency means the concentration at half of the fitted maximal effect; tags describe the fitted curve by direction and shape.

| Structure (SMILES) | activation | Potency |
| --- | --- | --- |
| CCc1ccc(NC(=O)COc2cccc(-n3cnnn3)c2)cc1 | inactive: -1.57% | – |
| COc1ccc(Cl)cc1NC(=O)Nc1ccc(C(=O)N2CCCC2)cc1 | inactive: 19.9% | – |
| CC/C(=N\NC(=O)CNC(=O)/C=C/c1ccc(OC)cc1)c1ccccc1 | inactive: -5.88% | – |
| O=C(Nc1ccc2c(c1)OCO2)N1CCN(c2ccc(F)cc2)CC1 | – | inconclusive [activator, partial curve] |
| Cc1cc(C(=O)Nc2ccc3c(c2)OCCO3)ccc1[N+](=O)[O-] | – | active: 0.708 µM |
| Cn1nc(NC(=O)C(F)(F)F)c2ncc(-c3ccc(Cl)cc3)nc21 | – | inconclusive [activator, partial curve] |
| O/N=C(/CCc1ccccc1)C1(O)CCCCC1 | inactive: -2.98% | – |
| CCOc1ccc(NC(=O)c2csc3c2CCCC3)cc1 | – | active: 2.24 µM |
| CCC(=O)NC(=Nc1nc2ccccc2s1)NC(=O)CC | – | active: 1.26 µM |
| O=C(Nc1ccc(-c2nc3ccccc3s2)cc1)C1=COCCO1 | – | active: 0.0891 µM |
| Cc1nnc(Nc2ccc3c(c2)OCO3)c2ccccc12 | – | inconclusive [activator, partial curve] |
| Cc1cc(C)n2nc(C(=O)Nc3nccs3)nc2n1 | – | inconclusive [activator, single point] |
| COc1ccc(O)c(-c2nc(N)nc(N)n2)c1 | – | active: 3.98 µM |
| Nc1ccccc1SCc1cn2ccccc2n1 | – | active: 2.24 µM |
| COc1ccc(-c2cc(-c3ccc(OC)c(OC)c3)n[nH]2)c(O)c1 | – | inconclusive [activator, partial curve] |
| CCCCC(=O)OCc1nc2ccccc2s1 | inactive: -0.712% | – |
| CCOC(=O)CCCn1ncn2c(cc3occc32)c1=O | inactive: 18% | – |
| N#C/C(=C\c1ccc(OCc2ccc(C(=O)O)cc2)cc1)C(=O)N1CCOCC1 | – | inconclusive [activator, single point] |
| CN1CCN(c2ccc(NC(=O)c3ccc4c(c3)OCCO4)cc2Cl)CC1 | – | active: 3.55 µM |
| CCn1nc2cc(C(=O)NCCc3cccs3)ccc2c1OC | – | active: 2.51 µM |
| COc1ccc(NC(=O)Nc2cccc(C)n2)c(OC)c1 | – | inconclusive [activator, partial curve] |

| Structure (SMILES) | activation | Potency |
| --- | --- | --- |
| COc1ccc(Br)cc1C1CC(=O)C(C)C(c2cc(Br)ccc2OC)N1 (centres undefined) | inactive: -5.49% | – |
| C/C(=N\NC(=O)c1ccc2c(c1)OCO2)c1ccc(O)cc1 | – | inconclusive [activator, single point] |
| CCc1ccc(C(=O)COC(=O)c2ccccc2OC)cc1 | – | active: 2.24 µM |
| NC(=O)Cc1ccc2sc(-c3ccccc3)nc2c1 | – | active: 3.55 µM |
| Cc1nc(C)c(-c2ccc(SCc3ccccc3F)nn2)s1 | – | inconclusive [activator, single point] |
| COc1ccc(Oc2ccc(-c3ccn[nH]3)cc2)cc1 | – | inconclusive [activator, partial curve] |
| O=C(Nc1cccc(O)c1)c1cnn2cccnc12 | – | inconclusive [activator, single point] |
| O=C(O)c1cccc(-c2noc(-c3cccc(Cl)c3)n2)c1 | – | active: 1.26 µM and active: 89.1 nM |
| O=C(O)c1cc(N/N=C/c2ccc(N3CCOCC3)s2)ccc1Cl | – | inconclusive [activator, single point] |
| Cc1ccc(NC(=O)c2ccc3c(c2)S(=O)(=O)c2ccccc2C3=O)cc1S(=O)(=O)N1CCOCC1 | inactive: -12.9% | – |
| c1ccc(CSc2ccc(-c3cccs3)nn2)nc1 | – | active: 3.55 µM |
| CCOc1ccc(C(=O)NC2=NCCS2)cc1 | – | active: 1.12 µM |
| COc1ccccc1Nc1nc2ccccc2n1C | – | inconclusive [activator, partial curve] |
| Cc1cc2occ(CC(=O)Nc3nccs3)c2cc1C(C)C | inactive: 0.288% | – |
| O=C(c1ccc2c3n(nc2c1)-c1ccccc1CO3)N1CCOCC1 | – | active: 1.58 µM |
| O=C(Nc1ccccc1Cl)NC1(C(=O)NCc2cccnc2)CCCCC1 | inactive: -5.18% | – |
| COc1ccc(Cc2nc(C(=O)Nc3ccccc3)cs2)cc1 | – | inconclusive [activator, single point] |
| COc1ccc(/C=C/C(=O)Oc2cccc(/C=N/NC(=O)COc3c(C)cccc3C)c2)cc1 | – | active: 1.58 µM |
| CC(C)(C)c1ccc(C(=O)c2cn[nH]c2-c2ccccc2O)cc1 | – | inconclusive [activator, single point] |
| CC(C)Cc1nnc(NC(=O)Nc2ccccc2)s1 | – | inconclusive [activator, single point] |
| COCc1nc(-c2ccc(-c3ccccc3)nc2OC)no1 | – | inconclusive [activator, single point] |

| Structure (SMILES) | activation | Potency |
| --- | --- | --- |
| Cc1ccc(/C=N/NC(=O)c2ccoc2C)s1 | – | inconclusive [activator, partial curve] |
| CC(Sc1nnc(NCc2ccccc2)s1)C(=O)Nc1ccc2c(c1)C(=O)c1ccccc1C2=O (centres undefined) | – | inconclusive [activator, single point] |
| Fc1ccc(N=c2ssnc2Cl)c(F)c1 | inactive: -0.529% | – |
| O=C(Nc1nnc(SCc2ccccc2)s1)C1=COCCO1 | – | active: 3.55 µM |
| COc1cccc(C(=O)Nc2ccc(-c3nnc(-c4ccco4)o3)cc2)c1 | inactive: -3.62% | – |
| CCOc1ccc(N(CC(=O)N2CCN(c3ccc(F)cc3)CC2)S(=O)(=O)c2c(C)noc2C)cc1 | inactive: -18.3% | – |
| COc1ccc(C)cc1NC(=O)CSc1nnc(CC(=O)Nc2ccccc2C)n1C | inactive: -0.451% | – |
| Cc1ccc(NC(=O)Nc2ccc3oc(C)nc3c2)cc1 | – | active: 1.12 µM |
| COc1ccc(NC(C)C(=O)N/N=C/c2ccc([N+](=O)[O-])s2)cc1 (centres undefined) | inactive: -3.38% | – |
| Cc1cc(C)cc(NC(=O)Nc2ccc3c(c2)CCC3)c1 | – | inconclusive [activator, partial curve] |
| O=C(COc1ccc(F)c(Cl)c1)c1ccc[nH]1 | – | inconclusive [activator, single point] |
| CCOC(=O)c1c(C)oc2c1c(C(c1ccccc1)N1CCOCC1)c(O)c1ccccc12 (centres undefined) | inactive: 12.7% | – |
| Cn1ccnc1SCC(=O)Nc1ccc(Oc2ccccc2)cc1 | – | inconclusive [activator, single point] |
| N#CCCN(C(=O)COC(=O)CNS(=O)(=O)c1ccc2ccccc2c1)c1ccccc1 | inactive: -3.85% | – |
| CCCCc1nc2cc(C(=O)N3CCCC(OCCC)C3)ccc2o1 (centres undefined) | – | inconclusive [activator, partial curve] |
| Nc1c(-c2ccccc2)cnn1-c1cccc([N+](=O)[O-])c1 | – | inconclusive [activator, partial curve] |
| Cc1cc(OCC(=O)N2CCCC2)ccc1Cl | – | inconclusive [activator, partial curve] |
| COc1cc(C=O)ccc1OCCCOc1ccccc1C(=O)O | – | inconclusive [activator, partial curve] |
| Cn1ccnc1SCC(=O)Nc1nc2ccccc2s1 | – | inconclusive [activator, partial curve] |
| COC(=O)c1ccc(NC(=O)c2cccc(NC(=O)c3ccco3)c2)cc1 | inactive: -8.78% | – |
| COc1ccc(-c2cc(C(=O)N3CCOCC3)no2)cc1 | – | active: 0.355 µM |

| Structure (SMILES) | activation | Potency |
| --- | --- | --- |
| Cc1cccc(NC(=O)CSc2ccc(-c3ccco3)nn2)c1C | inactive: -0.187% | – |
| O=C(O)c1cc(-c2ccco2)nc2ccccc12 | inactive: 14.4% | – |
| O=C(Nc1ccc(N2CCOCC2)c(Cl)c1)c1ccc(Br)o1 | – | active: 1.41 µM |
| Cc1nn(-c2ccccc2)c(Cl)c1/C=N/NC(=O)OC(C)(C)C | – | active: 2.82 µM |
| Cc1cccc(NC(=O)c2c(C)nn(-c3ccccc3)c2Cl)c1 | – | inconclusive [activator, single point] |
| Cc1c(/C(O)=C2/C(=O)C(=O)N(Cc3cccnc3)C2c2cccs2)cnn1-c1ccccc1 (centres undefined) | – | inconclusive [activator, partial curve] |
| Cc1occc1C(=O)Nc1ccc2c(c1)OCCO2 | – | active: 3.16 µM |
| CCCOc1cccc(C(=O)NC(=S)Nc2cccc(NC(=O)c3ccccc3Cl)c2)c1 | inactive: -7.85% | – |
| CCN(CC(=O)Nc1ccc2c(c1)OCCO2)C(=O)c1ccc(Cl)cc1Cl | – | active: 3.98 µM |
| CN(C)c1ccc(/C=N/NC(=O)c2ccn(C)n2)cc1 | – | active: 2.51 µM |
| CCSc1ccc(/C(N)=N/OC(=O)c2cccs2)cn1 | – | inconclusive [activator, single point] |
| O=C(Nc1ccc2c(c1)OCCO2)c1ccc(Cl)c(Cl)c1 | – | active: 1.58 µM |
| Cc1cccc(S(=O)(=O)Nc2ccc(-c3nc4ccc(C)cc4s3)cc2)c1 | – | active: 2.82 µM |
| O=C(/C=C/c1ccco1)Nc1cccnc1 | – | inconclusive [activator, partial curve] |
| Cc1nn(C)cc1S(=O)(=O)Nc1ccc2c(c1)OCCO2 | inactive: -3.94% | – |
| COc1ccc(C(=O)N=c2sc3ccccc3n2C)cc1OC | – | active: 2.51 µM |
| CC(C)(C)C(=O)Nc1nc2ccc(S(C)(=O)=O)cc2s1 | – | inconclusive [activator, partial curve] |
| C(=N\Nc1ccccn1)/c1ccc(N2CCOCC2)cc1 | – | active: 3.16 µM |
| O=C(CNC(=O)c1cccs1)Nc1cccc(S(=O)(=O)N2CCOCC2)c1 | inactive: 0.884% | – |
| CC(C)c1ccc(/C=C2\CC/C(=C\C=N\N(C)C)C2=O)cc1 | – | inconclusive [activator, partial curve] |
| COc1cc(Cl)ccc1OCc1cc(C(=O)N(C)C2CCOC2)no1 (centres undefined) | – | inconclusive [activator, single point] |
